# Laboratory results taken from the supplement of paper PMC3334620.
# Over roughly 33,000 sequences, “E-score (-0.5 to 0.5)” has its median near -0.012; the highest 2% begin near 0.27. Some of the results follow.
# Biological target: T1, Vhr1 (UniProt P40522)
# T1 sequence: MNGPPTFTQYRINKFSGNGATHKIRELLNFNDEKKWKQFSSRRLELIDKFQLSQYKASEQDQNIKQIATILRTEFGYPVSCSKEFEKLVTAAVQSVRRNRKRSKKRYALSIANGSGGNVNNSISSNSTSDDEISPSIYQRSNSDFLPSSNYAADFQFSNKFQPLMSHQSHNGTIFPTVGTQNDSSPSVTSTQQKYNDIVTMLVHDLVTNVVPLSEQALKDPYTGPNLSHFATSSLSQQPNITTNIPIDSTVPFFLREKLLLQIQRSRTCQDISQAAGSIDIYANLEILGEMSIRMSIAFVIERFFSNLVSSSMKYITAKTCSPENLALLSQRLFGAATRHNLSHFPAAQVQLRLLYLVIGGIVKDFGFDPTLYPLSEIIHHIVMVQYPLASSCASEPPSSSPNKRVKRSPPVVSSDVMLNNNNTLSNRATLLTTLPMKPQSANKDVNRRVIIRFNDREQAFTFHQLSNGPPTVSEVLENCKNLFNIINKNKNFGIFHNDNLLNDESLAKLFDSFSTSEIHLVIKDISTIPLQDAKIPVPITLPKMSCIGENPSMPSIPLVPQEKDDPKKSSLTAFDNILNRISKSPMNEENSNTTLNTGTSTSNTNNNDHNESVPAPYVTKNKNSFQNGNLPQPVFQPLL
# Assay: PBM E-score (8-mer binding enrichment) (E-score (-0.5 to 0.5)); higher = stronger / more preferred TF binding; most listed sequences are background and not binding sites
# Conditions: protein concentration: 200 nM; construct: GST-full length
# How it was run: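 E-scores (a modified Wilcoxon-Mann-Whitney statistic) were assigned by the Universal PBM Analysis Suite to every ungapped eight-base word pooled with its reverse complement. The input came from universal all-10-mer Agilent arrays made double-stranded by primer extension and probed with GST-tagged yeast transcription factors at about 100-200 nM. Fluorescent anti-GST detected bound protein, and masliner normalised the scans.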
row,Sequence,PBM E-score
1,AGTGAAAG,-0.222
2,CAAGGTCA,-0.199
3,ATTCTCGC,-0.246
4,ATGTGTGA,0.29
5,ATCTTTCC,-0.185
6,GATACGTA,-0.0446
7,CCCGTTTC,-0.169
8,CAGGATAG,0.197
9,AGGTGCCC,-0.234
10,ATGAACAT,0.0812
11,CAAACTAG,-0.0421
12,ATCTTGGC,-0.0511
13,GAACAGTC,0.0702
14,AGAAAGAG,-0.23
15,ACTCAGGC,0.259
16,CCTGTCAA,0.0681
17,AGCACCCT,-0.102
18,GTTATGTA,0.0138
19,ATCCATTG,0.127
20,GGCATGGA,-0.00291
21,AGCGCCAG,-0.161
22,CTGAATGC,-0.0924
23,AACATATC,0.174
24,CGGGAGAC,-0.0366

row,Sequence,PBM E-score
1,GCTCGGGA,-0.0256
2,AGGAGCTG,-0.136
3,AAGGGCGA,-0.0832
4,TCCAGGGA,-0.0164
5,CACACTCC,0.0928
6,ACAGGGCG,0.111
7,ATCCCGTG,0.154
8,CCTGCGAG,0.003
9,GCTAGACA,-0.00423
10,GGATAGAA,-0.064
11,CGGCTGTA,-0.0513
12,CTCCTGAA,-0.102
13,AACCGAAG,-0.125
14,AGACGTAA,-0.146
15,AAGATACC,0.17
16,GCCCTGCA,-0.04
17,CGGTTACA,0.0813
18,CGTGATAG,-0.102
19,CATTACCC,-0.0505
20,CATCGCCC,0.108
21,CTAAACTA,-0.13
22,CGCCCAAG,-0.152
23,TCGAATAA,-0.207
24,CCAGACAC,-0.0651

row,Sequence,PBM E-score
1,CTCGGTCC,0.091
2,AAGGGCGT,-0.168
3,AGGTAACG,-0.0471
4,CATTTTCG,0.0744
5,CACTCTCG,0.07
6,ACAGGCTA,-0.042
7,TGATTAAA,0.0338
8,ACCGAGAT,0.105
9,ATTTTAAG,-0.311
10,AGTAGTGC,0.0273
11,GCCTAAAC,-0.277
12,ATGGCCGA,-0.00719
13,GGCGGCAA,-0.00812
14,TCGGGTAA,0.0048
15,CGGCCTGC,-0.203
16,AGCGCGTG,0.0743
17,GCGGAGAC,0.252
18,ATTCCACG,-0.0247
19,TGACACCA,0.213
20,CGGAAGCC,-0.0668
21,AGTGGCGA,0.102
22,GCAACATA,-0.162
23,GTGTCTGA,0.171
24,GCGAAGAA,-0.191

row,Sequence,PBM E-score
1,GTGTCCTA,0.084
2,CCACCTCC,-0.0821
3,ACTTCCGA,0.0496
4,CGTTCAGC,-0.065
5,GAATACGC,0.0617
6,ACCGTCAA,-0.135
7,AAGCCGAC,-0.00302
8,AGGCCCAC,-0.244
9,AACTTGGA,-0.0693
10,GGGATGAC,0.323
11,CGTCATAG,-0.155
12,GAACATAA,-0.0256
13,TCACCGCA,0.0402
14,CCAGCTGG,0.301
15,AACCGCGA,0.278
16,AGGGCGAC,-0.0155
17,AAAATACC,-0.139
18,AAGACCCC,-0.116
19,TAATGGAA,-0.0617
20,CGAATCAC,0.331
21,ACTCACCA,0.378
22,ACGCTGAG,0.0319
